# Laboratory results taken from the supplement of paper PMC11417369.
# The other results are listed elsewhere or left out.
# Test system: PfHDP1 homeodomain (GST-tagged)
# Assay: gcPBM binding intensity (ln(normalized median fluorescence intensity)); higher = stronger DNA binding
# In short: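 The highest Masliner-normalised natural-log median intensity across replicate spots of either probe orientation is reported as binding intensity. GST-tagged P. falciparum DNA-binding domains expressed in E. coli were applied for 1 h to an Agilent 4 × 180k array of primer-extended double-stranded 36-bp intergenic genomic probes plus negative controls, and bound protein was detected with Alexa488 anti-GST antibody and scanned at 488 nm.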
row,Sequence,gcPBM binding intensity (ln)
1,TTTAAGTTTTTACTTTGTACGTATTATAATAAAATC [XGTACX_site5683],6.45
2,TTTAAAACCTTACATACACACAAATATATATATATA [CACACA_site677],9.19
3,AATGCTATCATTAATGCACACATTTAAAATTAATAT [CACACA_site3548],10
4,ATAATAAAAAATACAAGTACACATATTATATATATA [XGTACX_site5355],7.56
5,ACATCAAGCAGACACACACACACACCCACCCACCCA [CACACA_site8012],6.5
6,CAGGCACTAATAAACACACACATATAAATATAAATA [CACACA_site6320],6.58
7,TTTTTTTTTTTTTTTTGTACTCATACATACTATCAT [XGTACX_site3650],6.19
8,AATTTCTACTATTGTATGCACTTTCATACATACATA [GTGCAC_site9924],7.53
9,AACACAAGAACAGAACGTACACACACATATATATAT [XGTACX_site7347],8.73
10,AGGTGTGAGACCACGTTCACAAAATAAAATACATAA [CACACA_negctrl_site326],6.36
11,GCTTGAATAATCAATAGTACACACATATAAATATAT [XGTACX_site5964],6.55
12,TTTATTTTCATATGAACACACATATTTATATTATAA [CACACA_site7165],7.01
13,TACAATCTAAGGAGCACACAAAAATGGATAAATATA [CACACA_site933],6.69
14,TAATAAAAGAAAAAAAGTACAGACATATTGAATTTT [XGTACX_site5044],6.16
15,ATACATACATATATATGTACTTATATTTTACACATT [XGTACX_site1688],6.88
16,TATTTATAAGTTTACGCATGCATATAATTATTAATA [TGCATGCA_site311],6.23
17,TTTTTTTTTTTTTTTGTGCACAATTATTTCAATTTT [GTGCAC_site9884],10.2
18,TAATATTTATAATAGTGTACACAATTATAAACTGAA [XGTACX_site8426],6.8
19,ACCTTATTTATTATTGCATGTGACCATCAGATGGTA [TGCATGCA_site288],7.79

row,Sequence,gcPBM binding intensity (ln)
1,TTTATTTTTTACCAAGTGCAATATATTATAATAATA,8.63
2,TGTATGTTATGTATATGTACATATCTTTGTATTTAT [XGTACX_site6920],6.6
3,AAATAAATTAAAATAAATTAAATTAAATTAGCATTA [GTGCAC_negctrl_site531],5.8
4,TTTTAAATAATTCGTAATTATAATTATGGAAAAAAG [CACACA_negctrl_site152],6.62
5,TATCCATGCATTTACACACACACAAAAAAAAATTCT [CACACA_site4100],7.12
6,ATTTTTTTTTTTAATACACACAATTTTGATGAAGCA [CACACA_site3157],6.75
7,ACATTACCATATAAAACACACAAACATACATACATA [CACACA_site7709],6.81
8,TATAATATTTGGTGCACACAAATTAACAACTGTTTA [CACACA_site3742],10.8
9,TTTCATAAGAGAAAGACACACAAATATATATTTATT [CACACA_site827],6.31
10,AAAGAAAAAAAATAATGTACTTATGTATTTCAGAAA [XGTACX_site3570],6.03
11,ATATATATGCATAATACACACATCATATAATTAACC [CACACA_site1643],7.27
12,TTCATACATAGAAAATGTACATATATATATATATAT [XGTACX_site1895],9.3
13,AAGATATGTACTAATACACACACATATATATATATA [CACACA_site8249],9.28
14,AAAAAAAAAAACAATACATGCATAATATTAATAAAA [TGCATGCA_site913],6.47
15,TACAAAATATTTTACACACACATATAAATACAGATA [CACACA_site5447],6.82
16,ATACAAATAAAAAAAAAAATTATAAAATTATAAAAT [CACACA_negctrl_site914],6.09
17,AGTGATAATTTAAAAAGTACAAATGAAATTTAGCTA [XGTACX_site3375],6.22
18,TATATATAAAGCAGTACACACATTTATTTTAGATAC [CACACA_site3387],6.48
19,AGAGAGAAAGCTATAACATGCAAAAATTTTTAGAAC [TGCATGCA_site420],7.01

row,Sequence,gcPBM binding intensity (ln)
1,CATATATATATATATTGTACACATTTTTTATAAAAA [XGTACX_site2526],6.96
2,TATTTGCAATATAACACACACAAAAAAAGACTCGGA [CACACA_site6891],9.04
3,AATTATACATTATATTGTACATATGAATAATTAAAA [XGTACX_site6829],6.22
4,TATATGTAATATATATGTACGTATAATATAATATTG [XGTACX_site8620],6.45
5,TATATAATACAAAAGGGTACATTAACATATTATATA [XGTACX_site3196],6.74
6,CTATTATCGGTTCCTACACACAAATATAGATGTCTA [CACACA_site7651],6.73
7,TTTGTAACTTCTTTCACACATATATATATATATATA [CACACA_site5603],9.41
8,GTGTGCAAAAATTGTTGTACATTATATATAAAAAAA [XGTACX_site3246],10.6
9,TTTCACATATATATGGTGCATATTTTATGTGTAAAT [GTGCAC_site9937],9.91
10,ACCTCACAAATGAATACACACAAACATATATATTTA [CACACA_site4976],7.1
11,AATATCATCCTTTTTTTTTATAAAATTTAAAATATA [CACACA_negctrl_site844],6.51
12,ATTTTATGTTGAAAGTGTACGTATTAATATGTAGAA [XGTACX_site245],6.6
13,TATAAGAGAATATATACACACAAAAATAAATACAGT [CACACA_site5000],7.2
14,TATTTTATTATACCAAGTACAAAATTTAAATATGAA [XGTACX_site5478],6.32
15,AACAAAAAAAAAAAATGTACATATATATAATATATT [XGTACX_site3829],6
16,CCACAAGCAGCGGAAACATGCATATGTTGAAATAAT [TGCATGCA_site610],6.13
17,TCATTTCACAAACACACACACACAATATATTTCCTT [CACACA_site3905],7.12
18,TATATATATATATATTGTACCCTTTTCAAACTTCTC [XGTACX_site2812],9.24
19,TAATAATATTATTAATGTACAAATATATATACATAT [XGTACX_site7348],6.38
